Assay results as given in the supplement of paper PMC11876631.
Positions count from the first letter of the chain named. Numbers in names are those of the source. ± gives the standard deviation of the averaged measurements. Laboratory Escherichia coli strains with one amino-acid change in an essential protein, pooled on minimal glucose agar with carbenicillin or gentamicin at twice the control MIC (plus kanamycin and chloramphenicol for the plasmids), 48 h. Fold change of barcode share against drug-free plates; higher = less susceptible. Active = above 20 in both replicates (the paper's putatively resistant). '<' = one read or none on drug, '>' = one read or none on a drug-free plate. Shares are relative, so most strains fall below 1 when a few take over. Listed are strains with at least 15 reads on both drug-free plates, and hits; most hits rest on fewer reference reads. Replicate rank correlation about 0.5. Edits are read from barcodes.

Molecular target: Escherichia coli (laboratory strain)
Test: barcode share on antibiotic plates over drug-free plates; higher = less susceptible
Protocol: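 A pool of E. coli strains, each edited to carry one amino-acid change in an essential protein, was grown for 48 h on minimal glucose agar with or without antibiotic; strain barcodes were sequenced; mean of two replicates.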

[1] = antibiotic: carbenicillin, 2× MIC (3.1 µg/mL)
[2] = antibiotic: gentamicin, 2× MIC (MIC 0.45 µg/mL)

B1: murC M188W (protein)
chain: MNTQQLAKLRSIVPEMRRVRHIHFVGIGGAGMGGIAEVLANEGYQISGSDLAPNPVTQQLMNLGATIYFNHRPENVRDASVVVVSSAISADNPEIVAAHEARIPVIRRAEMLAELMRFRHGIAIAGTHGKTTTTAMVSSIYAEAGLDPTFVNGGLVKAAGVHARLGHGRYLIAEADESDASFLHLQPWVAIVTNIEADHMDTYQGDFENLKQTFINFLHNLPFYGRAVMCVDDPVIRELLPRVGRQTTTYGFSEDADVRVEDYQQIGPQGHFTLLRQDKEPMRVTLNAPGRHNALNAAAAVAVATEEGIDDEAILRALESFQGTGRRFDFLGEFPLEPVNGKSGTAMLVDDYGHHPTEVDATIKAARAGWPDKNLVMLFQPHRFTRTRDLYDDFANVLTQVDTLLMLEVYPAGEAPIPGADSRSLCRTIRGRGKIDPILVPDPARVAEMLAPVLTGNDLILVQGAGNIGKIARSLAEIKLKPQTPEEEQHD
fold change of barcode share [1]: 0.32 ± 0.15 | fold change of barcode share [2]: 0.00617 ± 0.0025

B2: murC M188Q (protein)
chain: B1 chain with W188Q
fold change of barcode share [1]: 0.177 ± 0.086 | fold change of barcode share [2]: < 0.00271

B3: murC M188D (protein)
chain: B1 chain with W188D
fold change of barcode share [1]: 0.307 ± 0.012 | fold change of barcode share [2]: 0.00722 ± 0.0024

B4: murC V192A (protein)
chain: B1 chain with W188M, V192A
fold change of barcode share [1]: 0.0959 ± 0.0026

B5: murD V211Q (protein)
chain: MADYQGKNVVIIGLGLTGLSCVDFFLARGVTPRVMDTRMTPPGLDKLPEAVERHTGSLNDEWLMAADLIVASPGIALAHPSLSAAADAGIEIVGDIELFCREAQAPIVAITGSNGKSTVTTLVGEMAKAAGVNVGVGGNIGLPALMLLDDECELYVLELSSFQLETTSSLQAVAATILNVTEDHMDRYPFGLQQYRAAKLRIYENAKVCVQNADDALTMPIRGADERCVSFGVNMGDYHLNHQQGETWLRVKGEKVLNVKEMKLSGQHNYTNALAALALADAAGLPRASSLKALTTFTGLPHRFEVVLEHNGVRWINDSKATNVGSTEAALNGLHVDGTLHLLLGGDGKSADFSPLARYLNGDNVRLYCFGRDGAQLAALRPEVAEQTETMEQAMRLLAPRVQPGDMVLLSPACASLDQFKNFEQRGNEFARLAKELG
fold change of barcode share [1]: 0.233 ± 0.065 | fold change of barcode share [2]: < 0.0085

B6: murD V211P (protein)
chain: B5 chain with Q211P
fold change of barcode share [1]: 0.457 ± 0.027 | fold change of barcode share [2]: < 0.00965
